From PMC4339810 (Scientific Reports, 2015)
These are yes or no findings as the source states them, for the method shown. For some of these results: In cells and extracts the contact can be indirect. Some binding calls cover weakened binding; strength is not graded here.

Protein sequences, listed by entry. Tags and fused reporters are not part of them. Lines headed by an entry give the natural chain unless they say otherwise; changes in a name come on top. Residues count along the entry.
UniProt P06748: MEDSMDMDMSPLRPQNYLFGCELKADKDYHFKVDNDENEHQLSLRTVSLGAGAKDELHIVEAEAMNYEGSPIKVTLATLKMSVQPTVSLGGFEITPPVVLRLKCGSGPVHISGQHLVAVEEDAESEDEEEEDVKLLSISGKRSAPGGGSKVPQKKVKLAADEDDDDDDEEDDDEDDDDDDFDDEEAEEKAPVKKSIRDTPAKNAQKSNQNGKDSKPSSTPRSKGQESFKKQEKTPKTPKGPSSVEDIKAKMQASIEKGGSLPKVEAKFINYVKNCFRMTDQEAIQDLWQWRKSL
GST-NPM1 1-117: residues 1-117 of P06748
GST-NPM1 187-295: residues 187-294 of P06748
GST-NPM1 260-295: residues 260-294 of P06748

T1: HMGA1a 1-51 (UniProt P17096)
T1 sequence: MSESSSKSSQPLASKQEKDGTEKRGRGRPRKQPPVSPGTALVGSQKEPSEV

B1: recombinant HMGA1a (natural protein, UniProt P17096-1 1-107, looked up)
chain: MSESSSKSSQPLASKQEKDGTEKRGRGRPRKQPPVSPGTALVGSQKEPSEVPTPKRPRGRPKGSKNKGAAKTRKTTTTPGRKPRGRPKKLEKEEEEGISQESSEEEQ
notes: HMGA1a, isoform of HMGA1 from alternative splicing
B2: recombinant HMGA1b (natural protein, UniProt P17096-2 1-96, looked up)
chain: MSESSSKSSQPLASKQEKDGTEKRGRGRPRKQPPKEPSEVPTPKRPRGRPKGSKNKGAAKTRKTTTTPGRKPRGRPKKLEKEEEEGISQESSEEEQ
notes: HMGA1b, isoform of HMGA1 from alternative splicing

Tests used:
[1] = biological target: HMGA1, endogenous in HepG2 cells (human (endogenous in HepG2)) (UniProt P17096); assay: co-IP; HepG2 lysate (1 mg) on protein G Sepharose with immobilised anti-HMGA1 or anti-HMGA2 antibody; 25 mM Tris/HCl pH 8, 0.5% NP40, 10% glycerol, 125 mM NaCl; 3 h at 4°C; NPM1 detected by western blot
[2] = biological target: GST-NPM1 1-295 (full length) (UniProt P06748); assay: pull-down; GST pull-down with HA-tagged full length HMGA proteins, both detected with the same antibody (supplementary Fig. S2)
[3] = biological target: HMGA1b of the GST pull-down with EtBr (UniProt P17096); assay: pull-down; GST pull-down with increasing concentrations of EtBr (supplementary Fig. S3); plasmid DNA used to in vitro translate NPM1 is present
HMGA1a 1-51 = biological target: T1, HMGA1a 1-51; assay: far-Western, overlay or dot blot; HMGA proteins and HMGA1a truncated forms separated by SDS-PAGE and blotted; probe: in vitro translated [35S]-labelled full length NPM1 (1-295); fluorography; only the target purified
HMGA1a 1-79 = HMGA1a 1-79 (UniProt P17096); assay: as above
recombinant HMGA1a = biological target: B1; assay: as above
GST-NPM1 260-295 = GST-NPM1 260-295 (UniProt P06748); assay: pull-down; GST-fused NPM1 forms as bait with recombinant HMGA proteins; bound proteins seen by western blot with anti-HMGA1 and anti-HMGA2 antibodies; both purified
GST-NPM1 1-117 = GST-NPM1 1-117 (UniProt P06748); assay: as above
GST-NPM1 187-295 = GST-NPM1 187-295 (UniProt P06748); assay: as above
[4] = biological target: GST-NPM1 1-295 (full length) (UniProt P06748); assay: condition: only salt concentration above 150 mM (NaCl series up to 300 mM); pull-down; full length GST-NPM1 with recombinant HMGA1a or HMGA2 in a series of 50 to 300 mM NaCl; here the samples above 150 mM salt; both purified

Question: “nucleophosmin (NPM1), endogenous in HepG2 cells (from UniProt P06748 1-294)” was tested. Which binding [1] did it give?
Answer: binds

Question: For “HA-HMGA1a (HA-tagged full length HMGA1a) (from UniProt P17096-1 1-107)”, which binding [2] is on record?
Answer: binds

Question: “in vitro transcribed, translated and [35S]-radiolabelled full length NPM1 (1-295) (from UniProt P06748 1-294)” was tested. Which binding [3] did it give?
Answer: binds

Question: What about the binding (HMGA1a 1-51) of the same molecule?
Answer: no binding

Question: What about the binding (HMGA1a 1-79) of the same molecule?
Answer: binds

Question: What about the binding (recombinant HMGA1a) of the same molecule?
Answer: binds

Question: B1 was tested. Which binding (GST-NPM1 260-295) did it give?
Answer: no binding

Question: What about the binding (GST-NPM1 1-117) of the same molecule?
Answer: no binding

Question: And the binding (GST-NPM1 187-295)?
Answer: no binding

Question: What about the binding [4] of the same molecule?
Answer: no binding

Question: Which binding (GST-NPM1 260-295) does the source give for B2 here?
Answer: no binding

Question: And the binding (GST-NPM1 1-117)?
Answer: no binding

Question: And the binding (GST-NPM1 187-295)?
Answer: no binding
